The values below come from the supplement of paper PMC9446081.

The structures appear in SMILES notation. The campaign covered roughly 39,000 compounds. About 220 (0.56%) showed activity. The list shows a part of the results.
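Also: static incubation at 37 °C against the wild-type strain, values averaged over two biological replicates.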

In this test the test system is Escherichia coli K-12 BW25113. As to the kind of experiment: relative growth (OD600 normalised to plate interquartile mean) (fraction); higher = less growth inhibition, active = 0.2 or less. The note with it: 50 µM; LB; incubation time: overnight (16-24 h).
On to `CCc1nc(C(N)=O)c(Nc2ccc(N3CCC(N4CCN(C)CC4)CC3)c(OC)c2)nc1NC1CCOCC1`, for which the relative growth was inactive: 0.995.
The result for `Cc1noc(C)c1NC(=O)Nc1ccc2c(c1)C(=O)N([C@H](C)CO)C[C@@H](C)[C@H](CN(C)C(=O)Nc1ccc(C(F)(F)F)cc1)OCCCC[C@@H](C)O2` reads inactive: 1.02; that for `O=C(NCc1ccc(F)cc1)[C@@H]1[C@@H](CO)[C@@H]2Cn3c(cccc3=O)[C@H]1N2C(=O)c1cnccn1`, inactive: 1.01.
In the case of `C[C@H]1CN([C@@H](C)CO)C(=O)Cc2cc(NC(=O)CCN3CCOCC3)ccc2O[C@@H]1CN(C)CC1CC1`, the relative growth is inactive: 1.
In the case of `Cc1noc(C)c1NC(=O)N(C)C[C@H]1Oc2ccc(NC(=O)Nc3ccc(C(F)(F)F)cc3)cc2CC(=O)N([C@H](C)CO)C[C@@H]1C`, the relative growth is inactive: 1.01.
Consider `Cc1ccc(S(=O)(=O)N(C)C[C@@H]2Oc3ccc(NS(C)(=O)=O)cc3CC(=O)N([C@H](C)CO)C[C@@H]2C)cc1`, for which the relative growth is inactive: 0.998.
Regarding `c1cc(CN2CCCNCCNCCCNCC2)ccc1CN1CCCNCCNCCCNCC1`, the relative growth was inactive: 0.851.
`C[C@@H]1CN([C@H](C)CO)C(=O)CCCn2nncc2CO[C@H]1CN(C)C(=O)Nc1cccc(C(F)(F)F)c1`: the relative growth is inactive: 0.974.
Next, `O=C(C[C@H]1CC[C@@H]2[C@H](COC[C@H](O)CN2C(=O)Nc2ccc(Cl)cc2)O1)NC1Cc2ccccc2C1`: inactive: 0.957; `COc1ccc(S(=O)(=O)N(C)C[C@@H]2Oc3ccc(NC(=O)Cc4ccccc4)cc3CC(=O)N([C@H](C)CO)C[C@H]2C)cc1`: inactive: 1; `CC(=O)N1CC(=O)N(c2cnn(C)c2)C[C@]12CCN(C(=O)N(C)C)C2`: inactive: 1.01.
Next, `O=C(C[C@@H]1C[C@@H]2c3cc(NS(=O)(=O)c4ccc(F)cc4)ccc3O[C@@H]2[C@@H](CO)O1)NCc1ccc(Oc2ccccc2)cc1`: inactive: 0.998; `Cc1noc(C)c1S(=O)(=O)N(C)C[C@@H]1Oc2ccc(NC(=O)NC(C)C)cc2CC(=O)N([C@@H](C)CO)C[C@H]1C`: inactive: 1; `O=C(Oc1ccccc1C(=O)O)c1ccccc1O`: inactive: 1.04.
The result for `NC(=CS(=O)(=O)Cc1ccc(F)cc1)NO` reads inactive: 1.01; that for `Cc1noc(C)c1S(=O)(=O)Nc1ccc2c(c1)C(=O)N([C@@H](C)CO)C[C@@H](C)[C@H](CN(C)C(=O)Nc1ccc(C(F)(F)F)cc1)OCCCC[C@H](C)O2`, inactive: 0.935; that for `Cc1ccc(S(=O)(=O)Nc2ccc3c(c2)C(=O)N([C@H](C)CO)C[C@H](C)[C@@H](CN(C)S(C)(=O)=O)OCCCC[C@@H](C)O3)cc1`, inactive: 1.03.
Consider `C[C@H](CO)N1C[C@H](C)[C@H](CN(C)C(=O)Nc2ccc(F)cc2)Oc2ccc(NC(=O)C3CC3)cc2CC1=O`, for which the relative growth is inactive: 0.993.
The result for `CCN1[C@@H]2O[C@@H]3O[C@H]4[C@H](O[C@H]3O[C@@H]2N(CC)S1(=O)=O)N(CC)S(=O)(=O)N4CC` reads inactive: 0.99; that for `C[C@H](CO)N1C[C@H](C)[C@H](CN(C)Cc2ccc(Oc3ccccc3)cc2)Oc2ccc(NC(=O)Cc3ccccc3)cc2C1=O`, inactive: 0.99; that for `O=C(O)c1ccc(S(=O)(=O)N(Cl)Cl)cc1`, inactive: 1.03.
Turning to `C[C@@H]1CN([C@@H](C)CO)C(=O)c2cc(NC(=O)Cc3ccccc3)ccc2O[C@@H]1CN(C)S(=O)(=O)c1ccccc1`, the relative growth is inactive: 0.994.
As to `COc1cc(/C=C/C(=O)N2CCC=CC2=O)cc(OC)c1OC(=O)CCCCCCCCCCC(=O)Oc1c(OC)cc(/C=C/C(=O)N2CCC=CC2=O)cc1OC`, the relative growth is inactive: 1.02.
For the molecule `COc1ccc(NC(=O)Nc2ccc3c(c2)C(=O)N([C@H](C)CO)C[C@H](C)[C@@H](CN(C)S(=O)(=O)c2c(C)noc2C)OCCCC[C@@H](C)O3)cc1`, the relative growth was inactive: 1.02.
Next, `O=C(Nc1cccnc1)c1nc2ncccn2n1`: inactive: 1.01; `C[C@@H]1CCCCO[C@@H](CN(C)C(=O)c2ccccc2)[C@H](C)CN([C@@H](C)CO)C(=O)c2cc(NC(=O)C3CCCCC3)ccc2O1`: inactive: 0.996.
Next, `C[C@H](CO)N1C[C@H](C)[C@H](CN(C)C(=O)Nc2ccc3c(c2)OCO3)OCCCC[C@H](C)Oc2ccc(NC(=O)Nc3ccc(F)cc3)cc2C1=O`: inactive: 1.03; `CN(C)C(=O)c1ccc(-c2ccc3n(c2=O)C[C@@H]2[C@@H](CO)[C@H](C(=O)NCCc4ccccc4)N[C@H]32)cc1`: inactive: 0.982; `COc1cccc(NC(=O)N2C[C@H](O)COC[C@H]3O[C@@H](CC(=O)NC4Cc5ccccc5C4)CC[C@@H]32)c1`: inactive: 1.
For the molecule `CO[C@H]1CN(C)C(=O)c2cc(NC(=O)c3ccccc3)ccc2OC[C@@H](C)N(C(=O)CN(C)C)C[C@@H]1C`, the relative growth is inactive: 0.99.
Turning to `C[C@@H]1CN([C@@H](C)CO)C(=O)c2cc(NS(=O)(=O)c3ccc(F)cc3)ccc2O[C@H]1CN(C)Cc1ccc(-c2ccccc2)cc1`, the relative growth is inactive: 1.03.
In the case of `C[C@@H]1CCCCO[C@H](CN(C)C(=O)Nc2ccc(C(F)(F)F)cc2)[C@@H](C)CN([C@H](C)CO)C(=O)c2cc(NC(=O)CCC(F)(F)F)ccc2O1`, the relative growth was inactive: 0.999.
With `C[C@@H]1CCCCO[C@@H](CN(C)S(=O)(=O)c2cccs2)[C@H](C)CN([C@H](C)CO)C(=O)c2cc(NS(=O)(=O)c3cn(C)cn3)ccc2O1`, the relative growth is inactive: 1.01.
`CCCC(=O)N(CCc1c[nH]c2ccccc12)[C@@H]1CC(C(=O)NCCO)=C[C@H](Oc2c(I)cc(CO)cc2OC)[C@H]1O`: the relative growth was inactive: 0.985.
Next, `C[C@@H]1CCCCO[C@@H](CN(C)CC2CC2)[C@H](C)CN([C@@H](C)CO)C(=O)c2cc(NC(=O)Nc3ccccc3)ccc2O1`: inactive: 1.01; `C[C@@H]1CCCCO[C@H](CN(C)Cc2ccccc2)[C@@H](C)CN([C@H](C)CO)C(=O)c2cc(NS(=O)(=O)c3ccc(F)cc3)ccc2O1`: inactive: 1.01; `COC(=O)c1c2oc(c1C(=O)OC)C(=O)N[C@H](Cc1ccccc1)Cn1cc(nn1)CNC(=O)[C@@H](Cc1ccccc1)NC(=O)N[C@@H](CO)CC2`: inactive: 0.991.
`C[C@H](CO)N1C[C@H](C)[C@H](CN(C)S(=O)(=O)c2ccc3ccccc3c2)OCc2cn(nn2)CCCC1=O`: the relative growth is inactive: 0.99.
On to `COc1cccc(S(=O)(=O)N(C)C[C@@H]2Oc3cc(C#CCN(C)C)ccc3S(=O)(=O)N([C@@H](C)CO)C[C@H]2C)c1`, for which the relative growth was inactive: 1.
`C[C@@H]1CN([C@@H](C)CO)C(=O)c2cccc(NS(=O)(=O)c3ccc(Cl)cc3)c2O[C@@H]1CN(C)C(=O)Nc1cccc2ccccc12`: the relative growth is inactive: 1.01.
In the case of `C[C@@H]1CN([C@@H](C)CO)S(=O)(=O)c2ccc(C#C[C@@H](C)O)cc2O[C@H]1CN(C)C(=O)Nc1ccccc1`, the relative growth was inactive: 1.01.
Next, `COc1ccc(S(=O)(=O)N2C[C@H](O)COC[C@@H]3O[C@@H](CC(=O)N[C@@H]4CCN(Cc5ccccc5)C4)CC[C@H]32)cc1`: inactive: 0.978.
Take `C[C@H]1CN([C@@H](C)CO)C(=O)Cc2cc(NS(=O)(=O)c3ccc(Cl)cc3)ccc2O[C@H]1CN(C)C(=O)Nc1cccc2ccccc12`: the relative growth is inactive: 1.02.
Take `C[C@H]1CN([C@@H](C)CO)C(=O)c2cc(NS(C)(=O)=O)ccc2O[C@@H]1CN(C)Cc1ccc(C(=O)O)cc1`: the relative growth is inactive: 0.97.
Next, `C[C@@H]1CN([C@H](C)CO)C(=O)c2cc(NC(=O)CCCN(C)C)ccc2O[C@H]1CN(C)Cc1ccc(Oc2ccccc2)cc1`: inactive: 0.974; `O=C1C[C@H](N2C(=O)CCC2=O)[C@@H]2CO[C@@H]1O2`: inactive: 0.954.
The result for `C[C@@H]1CCCCO[C@H](CN(C)C(=O)Nc2cccc3ccccc23)[C@H](C)CN([C@@H](C)CO)C(=O)c2cc(NC(=O)CCCN(C)C)ccc2O1` reads inactive: 0.982.
The result for `C[C@@H]1CCCCO[C@H](CN(C)S(=O)(=O)c2ccc(Cl)cc2)[C@@H](C)CN([C@H](C)CO)C(=O)c2cc(NS(=O)(=O)c3ccc(Cl)cc3)ccc2O1` reads inactive: 0.987; that for `C[C@@H]1CN([C@@H](C)CO)C(=O)c2cc(NS(=O)(=O)c3ccccc3)ccc2O[C@@H](C)CCCCO[C@@H]1CN(C)C(=O)Nc1ccc(C(F)(F)F)cc1`, inactive: 0.98.
Regarding `C=C/C=C/[C@@H]1C(=C)CN([C@@H](Cc2ccccc2)C(=O)OC)[C@H]1[C@@H](O)CCn1cc(-c2ccc(C(=O)NO)s2)nn1`, the relative growth is inactive: 0.99.
Turning to `C[C@@H]1CN([C@@H](C)CO)C(=O)c2cc(NC(=O)C3CC3)ccc2O[C@H]1CN(C)S(=O)(=O)c1cn(C)cn1`, the relative growth is inactive: 1.02.
With `O=S(=O)(NCCN(C/C=C/c1ccc(F)cc1)C/C=C/c1ccc(F)cc1)c1cccc2cnccc12`, the relative growth was inactive: 1.01.
As for `Cc1cccc(S(=O)(=O)N2C[C@H](O)COC[C@@H]3O[C@H](CC(=O)NCc4ccc5c(c4)OCO5)CC[C@H]32)c1`, the relative growth is inactive: 1.01.
The result for `CC(C)NC(=O)N(C)C[C@@H]1Oc2ccc(NC(=O)CCCN(C)C)cc2C(=O)N([C@@H](C)CO)C[C@H]1C` reads inactive: 1.
The result for `C[C@H](CO)N1C[C@H](C)[C@@H](CN(C)C(=O)NC2CCCCC2)Oc2ccc(NC(=O)Nc3ccc(C(F)(F)F)cc3)cc2C1=O` reads inactive: 0.998; that for `C[C@@H]1CN([C@H](C)CO)C(=O)c2cc(NC(=O)CCCN(C)C)ccc2O[C@@H]1CN(C)Cc1ccncc1`, inactive: 0.966; that for `C[C@@H]1CCCCO[C@@H](CN(C)S(=O)(=O)c2ccc(Cl)cc2)[C@@H](C)CN([C@@H](C)CO)C(=O)c2cc(NC(=O)C3CCCCC3)ccc2O1`, inactive: 1.02.
For `C[C@@H]1CN([C@H](C)CO)C(=O)c2cc(NS(=O)(=O)c3cn(C)cn3)ccc2O[C@H]1CN(C)S(=O)(=O)c1cccs1`, the relative growth is inactive: 0.98.
